Measured values taken from a collection of fitness landscapes (doi:10.1126/science.1257360).
This is one part of the list.

B1: PhoQ; a variant is named by its letters at X, in order, P23837 (parent)
chain: MKKLLRLFFPLSLRVRFLLATAAVVLVLSLAYGMVALIGYSVSFDKTTFRLLRGESNLFYTLAKWENNKLHVELPENIDKQSPTMTLIYDENGQLLWAQRDVPWLMKMIQPDWLKSNGFHEIEADVNDTSLLLSGDHSIQQQLQEVREDDDDAEMTHSVAVNVYPATSRMPKLTIVVVDTIPVELKSSYMVWSWFIYVLSANLLLVIPLLWVAAWWSLRPIEALAKEVRELEEHNRELLNPATTRELTSLVRNLNRLLKSERERYDKYRTTLTDLTHSLKTPLXXLQXXLRSLRSEKMSVSDAEPVMLEQISRISQQIGYYLHRASMRGGTLLSRELHPVAPLLDNLTSALNKVYQRKGVNISLDISPEISFVGEQNDFVEVMGNVLDNACKYCLEFVEISARQTDEHLYIVVEDDGPGIPLSKREVIFDRGQRVDTLRPGQGVGLAVAREITEQYEGKIVAGESMLGGARMEVIFGRQHSAPKDE

Variants of: B1
Assay: enrichment ratio after two sorts for PhoP signalling (ratio (wild type AVST 3.29)); higher = more functional
Conditions: with PhoP (E. coli)

| Variant | enrichment ratio |
| --- | --- |
| IYDE | ≤ 0.25 |
| AATE | ≤ 0.25 |
| FGLV | 11.7 |
| MDGI | ≤ 0.25 |
| TWWL | ≤ 0.25 |
| NFCY | ≤ 0.25 |
| IIPI | ≤ 0.25 |
| IYNW | ≤ 0.25 |
| QIMY | ≤ 0.25 |
| KQTC | ≤ 0.25 |
| MMIN | ≤ 0.25 |
| MEHE | ≤ 0.25 |
| VCNV | ≤ 0.25 |
| MRVA | ≤ 0.25 |
| MVTF | 0.928 |
| MVMD | ≤ 0.25 |
| EIVL | ≤ 0.25 |
| IRSM | ≤ 0.25 |
| KCMY | ≤ 0.25 |
| SKGT | ≤ 0.25 |
| QSIM | ≤ 0.25 |
| NLHY | ≤ 0.25 |
| KPQC | ≤ 0.25 |
| IAIG | ≤ 0.25 |

| Variant | enrichment ratio |
| --- | --- |
| HRDS | ≤ 0.25 |
| NNSV | 0.781 |
| WTRE | ≤ 0.25 |
| MDFV | ≤ 0.25 |
| ICVC | ≤ 0.25 |
| KAMC | ≤ 0.25 |
| VYCL | ≤ 0.25 |
| KVHC | ≤ 0.25 |
| KMDR | ≤ 0.25 |
| RLVN | ≤ 0.25 |
| IQIN | ≤ 0.25 |
| PTKH | ≤ 0.25 |
| GMYS | ≤ 0.25 |
| FSSQ | ≤ 0.25 |
| MCMK | 9.59 |
| FSMF | 2.43 |
| LPEQ | ≤ 0.25 |
| NISI | ≤ 0.25 |
| PFTC | ≤ 0.25 |
| WHWF | ≤ 0.25 |
| INNP | ≤ 0.25 |
| EFNL | ≤ 0.25 |
| KMSQ | ≤ 0.25 |
| LSHA | ≤ 0.25 |

| Variant | enrichment ratio |
| --- | --- |
| ITGW | ≤ 0.25 |
| IFRC | ≤ 0.25 |
| DIVI | ≤ 0.25 |
| MALM | 9.02 |
| ERDA | ≤ 0.25 |
| KLQH | ≤ 0.25 |
| RPSC | ≤ 0.25 |
| LHGS | ≤ 0.25 |
| ESDG | ≤ 0.25 |
| KMLF | ≤ 0.25 |
| QVSQ | ≤ 0.25 |
| VNYM | ≤ 0.25 |
| ESHD | ≤ 0.25 |
| SCHC | ≤ 0.25 |
| LFHV | ≤ 0.25 |
| HTWD | ≤ 0.25 |
| WFKY | ≤ 0.25 |
| WWVT | ≤ 0.25 |
| GMAY | 7.02 |
| NECI | 3.8 |
| GYEI | ≤ 0.25 |
| ANIS | 4.66 |
| RQVH | 0.289 |
| DTCG | ≤ 0.25 |

| Variant | enrichment ratio |
| --- | --- |
| RTYC | ≤ 0.25 |
| QEYC | ≤ 0.25 |
| QRRA | ≤ 0.25 |
| FDEL | ≤ 0.25 |
| VTWP | ≤ 0.25 |
| MKND | ≤ 0.25 |
| ELPP | ≤ 0.25 |
| QHFL | ≤ 0.25 |
| MMQV | ≤ 0.25 |
| PRNC | ≤ 0.25 |
| PPFS | ≤ 0.25 |
| EDNQ | ≤ 0.25 |
| DVTK | ≤ 0.25 |
| HAQH | ≤ 0.25 |
| LRYN | ≤ 0.25 |
| MFRS | ≤ 0.25 |
| ESQY | ≤ 0.25 |
| FARH | ≤ 0.25 |
| SEQW | ≤ 0.25 |
| WSMG | ≤ 0.25 |
| THAV | 4.11 |
| MSKF | ≤ 0.25 |
| KIEF | ≤ 0.25 |
| MGWG | 0.67 |

| Variant | enrichment ratio |
| --- | --- |
| INTL | ≤ 0.25 |
| FEAT | ≤ 0.25 |
| SPFF | ≤ 0.25 |
| DIGH | ≤ 0.25 |
| GDLI | 7.64 |
| PIYE | ≤ 0.25 |
| QGTY | ≤ 0.25 |
| WRHM | ≤ 0.25 |
| TDAG | 2.68 |
| QIRA | ≤ 0.25 |
| GQAC | ≤ 0.25 |
| FFGE | ≤ 0.25 |
| HWAV | ≤ 0.25 |
| QEIY | ≤ 0.25 |
| SPYC | ≤ 0.25 |
| LGNH | ≤ 0.25 |
| GMPS | ≤ 0.25 |
| VARM | ≤ 0.25 |
| YESF | ≤ 0.25 |
| YHGW | ≤ 0.25 |
| KMLH | ≤ 0.25 |
| FLTF | ≤ 0.25 |
| VTRT | ≤ 0.25 |
| FVNT | ≤ 0.25 |

| Variant | enrichment ratio |
| --- | --- |
| SIMR | 11.2 |
| TTSD | ≤ 0.25 |
| ANGH | 11.6 |
| APEW | ≤ 0.25 |
| MIDI | ≤ 0.25 |
| AFLA | 6.5 |
| WMYN | ≤ 0.25 |
| CKTS | ≤ 0.25 |
| RAKN | ≤ 0.25 |
| HHMC | ≤ 0.25 |
| MFKA | ≤ 0.25 |
| FTSM | 1.25 |
| PVSG | ≤ 0.25 |
| QPPG | ≤ 0.25 |
| NRSP | ≤ 0.25 |
| MNDW | ≤ 0.25 |
| KFIH | ≤ 0.25 |
| QEGQ | ≤ 0.25 |
| SSYW | ≤ 0.25 |
| ILGP | ≤ 0.25 |
| LAPG | ≤ 0.25 |
| DILS | ≤ 0.25 |
| YPHV | ≤ 0.25 |
| YEFA | ≤ 0.25 |

| Variant | enrichment ratio |
| --- | --- |
| VLRQ | ≤ 0.25 |
| ELNG | ≤ 0.25 |
| PYET | ≤ 0.25 |
| TYAK | ≤ 0.25 |
| QLHG | ≤ 0.25 |
| LSRH | ≤ 0.25 |
| PRWK | ≤ 0.25 |
| NGDM | ≤ 0.25 |
| KYNA | ≤ 0.25 |
| QRWG | ≤ 0.25 |
| HPRD | ≤ 0.25 |
| LQMH | ≤ 0.25 |
| IRLY | ≤ 0.25 |
| KESS | ≤ 0.25 |
| RWTW | ≤ 0.25 |
| GNVI | 14.7 |
| MYND | ≤ 0.25 |
| FDGE | ≤ 0.25 |
| MYYR | ≤ 0.25 |
| DKHV | ≤ 0.25 |
| LKFD | ≤ 0.25 |
| AALR | 1.6 |
| VCVQ | ≤ 0.25 |
| RAIT | ≤ 0.25 |

| Variant | enrichment ratio |
| --- | --- |
| MGCE | ≤ 0.25 |
| NQPN | ≤ 0.25 |
| KAPC | ≤ 0.25 |
| SLQV | ≤ 0.25 |
| IRDE | ≤ 0.25 |
| GARL | ≤ 0.25 |
| WSVI | ≤ 0.25 |
| IDYH | ≤ 0.25 |
| YPLN | ≤ 0.25 |
| ENYL | ≤ 0.25 |
| HFKN | ≤ 0.25 |
| PWCN | ≤ 0.25 |
| YKVW | ≤ 0.25 |
| SSKA | ≤ 0.25 |
| SQHT | ≤ 0.25 |
| EFKM | ≤ 0.25 |
| SVAP | ≤ 0.25 |
| VRVS | ≤ 0.25 |
| DHEF | ≤ 0.25 |
| IIFG | ≤ 0.25 |
| HGDN | ≤ 0.25 |
| TTYV | 7.23 |
| WEHM | ≤ 0.25 |
| AYPS | ≤ 0.25 |

| Variant | enrichment ratio |
| --- | --- |
| RQIF | ≤ 0.25 |
| WKNY | ≤ 0.25 |
| VKPN | ≤ 0.25 |
| RREC | ≤ 0.25 |
| SESQ | 13.9 |
| SNIT | 1.1 |
| YKTL | 0.944 |
| VWQQ | ≤ 0.25 |
| RVDN | ≤ 0.25 |
| NDSP | ≤ 0.25 |
| HESM | ≤ 0.25 |
| MSPH | ≤ 0.25 |
| ELWQ | ≤ 0.25 |
| VHPS | ≤ 0.25 |
| ISDV | ≤ 0.25 |
| QYYK | ≤ 0.25 |
| MPKM | ≤ 0.25 |
| YYHI | ≤ 0.25 |
| RGLP | 0.423 |
| LIVW | ≤ 0.25 |
| ELAI | ≤ 0.25 |
| SHFF | ≤ 0.25 |
| MTEL | ≤ 0.25 |
| DPFQ | ≤ 0.25 |

| Variant | enrichment ratio |
| --- | --- |
| SEHT | ≤ 0.25 |
| FCAK | ≤ 0.25 |
| GDDL | ≤ 0.25 |
| TCNL | 4.28 |
| DYYK | ≤ 0.25 |
| STDC | ≤ 0.25 |
| GTRG | ≤ 0.25 |
| EVTL | ≤ 0.25 |
| VLTI | ≤ 0.25 |
| DIST | ≤ 0.25 |
| FTHQ | ≤ 0.25 |
| NHSP | ≤ 0.25 |
| LEVP | ≤ 0.25 |
| HRVL | ≤ 0.25 |
| DVER | ≤ 0.25 |
| DQAH | ≤ 0.25 |
| LKIF | ≤ 0.25 |
| LMKP | ≤ 0.25 |
| VFGS | ≤ 0.25 |
| YGWA | ≤ 0.25 |
| YGWF | ≤ 0.25 |
| KRDC | ≤ 0.25 |
| AALY | 5.54 |
| VDHR | ≤ 0.25 |

| Variant | enrichment ratio |
| --- | --- |
| SSFP | ≤ 0.25 |
| KHCF | ≤ 0.25 |
| FSIF | ≤ 0.25 |
| GCIG | 12.8 |
| QNVG | ≤ 0.25 |
| NMHQ | ≤ 0.25 |
| LVVQ | ≤ 0.25 |
| YHMM | ≤ 0.25 |
| DRVT | ≤ 0.25 |
| EPCW | ≤ 0.25 |
| YMDL | ≤ 0.25 |
| MSTR | ≤ 0.25 |
| NIAD | ≤ 0.25 |
| VAYA | ≤ 0.25 |
| FYQV | ≤ 0.25 |
| CYFD | ≤ 0.25 |
| EGID | ≤ 0.25 |
| KDYY | ≤ 0.25 |
| QFGA | ≤ 0.25 |
| TSMS | 26.4 |
| SEAH | 31.6 |
| LVPD | ≤ 0.25 |
| LPGS | ≤ 0.25 |
| HQNQ | ≤ 0.25 |

| Variant | enrichment ratio |
| --- | --- |
| WKQT | ≤ 0.25 |
| LKFP | ≤ 0.25 |
| PSYV | ≤ 0.25 |
| LPQE | ≤ 0.25 |
| FACW | ≤ 0.25 |
| DRVE | ≤ 0.25 |
| GKPM | ≤ 0.25 |
| CDKC | ≤ 0.25 |
| KPVG | ≤ 0.25 |
| FIDP | ≤ 0.25 |
| TWYY | ≤ 0.25 |
| AACS | 17.3 |
| LAIP | ≤ 0.25 |
| ITHM | ≤ 0.25 |
| TPEY | ≤ 0.25 |
| FILA | 0.623 |
| MTHW | ≤ 0.25 |
| THMV | 8.19 |
| IEMK | ≤ 0.25 |
| VACE | ≤ 0.25 |
| HTNM | ≤ 0.25 |
| ISVF | ≤ 0.25 |
| YYVT | ≤ 0.25 |
| LVID | ≤ 0.25 |

| Variant | enrichment ratio |
| --- | --- |
| YLYC | ≤ 0.25 |
| MFDV | ≤ 0.25 |
| IEKW | ≤ 0.25 |
| MTTR | ≤ 0.25 |
| AGGS | ≤ 0.25 |
| QICI | ≤ 0.25 |
| VNNW | ≤ 0.25 |
| HFNY | ≤ 0.25 |
| YEQA | ≤ 0.25 |
| WGAC | ≤ 0.25 |
| IDKA | ≤ 0.25 |
| FGTW | ≤ 0.25 |
| DEGV | ≤ 0.25 |
| RYRA | ≤ 0.25 |
| LFNV | ≤ 0.25 |
| VKSK | ≤ 0.25 |
| WPEY | ≤ 0.25 |
| PAVR | ≤ 0.25 |
